Source: PubChem BioAssay AID1645882 (National Center for Advancing Translational Sciences (NCATS), 2021)
The campaign covered roughly 16,000 compounds. About 120 (0.75%) were called active. About 4% were inconclusive and are not listed. Calls follow the shape of the dose curve; as a rule, active = well fitted inhibition curve with a large enough effect; inconclusive = small, poorly fitted or top-dose-only effect; inactive = no such curve, though single readings can be large or run the other way. Some of the results follow. Where a SMILES comes first, the peptide text is derived from it. Bridges are numbered along the chain shown (N, C = ends). [ ]: non-standard residue; d: D form. The star is where a group is joined. Dab(CH2SO3H) = N[C@@H](CCNCS(=O)(=O)O)C(=O)O; X8 = CC[C@@H](C)CCCCC(=O)*; Dab = NCC[C@H](N)C(=O)O

Biological target: Rap guanine nucleotide exchange factor 3 (Homo sapiens) (UniProt O95398)
Chain of UniProt O95398 (O95398 whole entry, looked up): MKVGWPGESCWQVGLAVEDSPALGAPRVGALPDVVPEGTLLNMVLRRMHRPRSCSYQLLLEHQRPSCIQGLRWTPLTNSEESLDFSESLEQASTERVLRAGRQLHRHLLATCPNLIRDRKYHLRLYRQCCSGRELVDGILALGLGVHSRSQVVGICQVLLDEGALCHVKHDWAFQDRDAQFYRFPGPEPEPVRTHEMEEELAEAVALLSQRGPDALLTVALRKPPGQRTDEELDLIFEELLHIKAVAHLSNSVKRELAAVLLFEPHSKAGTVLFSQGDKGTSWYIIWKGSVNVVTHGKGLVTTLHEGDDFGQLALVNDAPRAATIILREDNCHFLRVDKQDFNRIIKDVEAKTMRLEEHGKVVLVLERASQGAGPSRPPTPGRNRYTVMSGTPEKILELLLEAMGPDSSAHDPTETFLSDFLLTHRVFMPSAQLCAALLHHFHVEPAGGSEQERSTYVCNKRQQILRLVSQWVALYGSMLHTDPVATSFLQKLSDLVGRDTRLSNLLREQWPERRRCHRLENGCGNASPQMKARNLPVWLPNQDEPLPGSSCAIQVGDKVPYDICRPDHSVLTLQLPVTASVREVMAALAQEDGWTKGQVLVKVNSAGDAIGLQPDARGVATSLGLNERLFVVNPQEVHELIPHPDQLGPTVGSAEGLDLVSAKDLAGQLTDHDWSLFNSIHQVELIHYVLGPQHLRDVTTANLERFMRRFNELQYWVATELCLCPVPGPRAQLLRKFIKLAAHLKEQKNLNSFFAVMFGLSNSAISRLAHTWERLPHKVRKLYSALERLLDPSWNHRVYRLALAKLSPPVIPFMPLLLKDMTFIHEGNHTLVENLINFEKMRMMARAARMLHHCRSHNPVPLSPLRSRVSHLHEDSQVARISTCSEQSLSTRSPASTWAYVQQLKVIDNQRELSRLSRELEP
Assay: Validation qHTS for antagonist of cAMP-regulated guanine nucleotide exchange factor 3 (EPAC1); also: nearly all actives have a fitted effect of over 75% in size;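 as to activity change, negative = inhibition: plate controls were DMSO for no effect and ATA control for full effect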
Settings: EPAC1 Rap1B-BODIPY-GDP exchange, fluorescence; series mostly up to 150 µM; activity change, negative = inhibition: at the top concentration
In short: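 EPAC1 (100 nM) mixed with 250 nM RAP1B-BODIPY-GDP and 50 uM GDP; compounds in concentration series, 5 min at room temperature. Fluorescence (ex 480/em 540 nm) read every 5 min for 30 min; normalized to ATA control and DMSO.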
Potency is read from the fitted curve at half-maximal effect.

Activity change, negative = inhibition, inactive:
CN[C@@H]1[C@@H](O[C@H]2O[C@H](CO)[C@@H](N)[C@H](O)[C@H]2O)O[C@H]2C[C@@H](N)[C@@H](O[C@H]3[C@H](O)[C@@H](O)[C@H](N)C[C@@H]3N)O[C@@H]2[C@@H]1O 14.8% [at 75.8 µM]
CCS(=O)(=O)Nc1cc(C(=O)N[C@H]2CCCCNC2=O)c2c(c1)nc(-c1ccccc1)n2C 23.9%
c1cncc(CNc2cc(-c3ccoc3)ncn2)c1 5.08%
CC(C)OC(=O)c1cc(C(=O)OC(C)C)cc([N+](=O)[O-])c1 15.6% [at 320 µM]
COc1cccc2c1C(=O)c1c(O)c3c(c(O)c1C2=O)C[C@@](O)(C(=O)CO)C[C@@H]3O[C@H]1C[C@H](N)[C@H](O[C@@H]2CCCCO2)[C@H](C)O1 -22.8%
COC(=O)c1c(OCc2ccccn2)cc(=O)n2c1CCN(C(=O)c1cc(C(C)C)nn1C)CC2 2.61%
COc1cc([C@@H]2c3cc4c(cc3[C@@H](O[C@@H]3O[C@@H]5CO[C@@H](C)O[C@@H]5[C@H](O)[C@@H]3O)[C@H]3COC(=O)[C@H]23)OCO4)cc(OC)c1O 19.9% [at 39.6 µM]
COC(=O)C1=CO[C@@H](O)[C@@H]2C(CO)=CC[C@H]12 5.88% [at 75.8 µM]
COCCn1c(=O)c(-c2ccc(OC)cc2)nc2cnc(Oc3ccccc3)nc21 6.68%
CC(=O)Nc1ccn(C2COC(COC(=O)c3ccccc3)O2)c(=O)n1 (stereo not drawn) -15.3%
NC(=S)N=Nc1ccc(NN=C(N)N)cc1 -4.56%
COc1ccc(-c2nc3cnc(OC)nc3n(Cc3cccs3)c2=O)cc1 12.9%
Cc1ccc(C(=O)Nc2cccc(-c3nc(CNC(=O)C4CCCCC4)c(C)o3)c2)s1 9.78%
O=c1c(-c2ccc(F)cc2)nc2cncnc2n1Cc1ccc(F)cc1 14.3%
CCCCCCCCCCCCCCC[C@@H](O)[C@H](CO)NC(=O)CCCCCCC 16.6% [at 15.3 µM]
O=C1NCC2(CCN(CCc3ccccc3)CC2)O1
O=C(NC1CCN(Cc2ccccc2)C1)c1cnn(-c2ncc3c(n2)-c2ccccc2CC3)c1C1CC1 (stereo not drawn) 8.27%
CCNc1ncc2ncc(=O)n(Cc3ccc(F)cc3)c2n1 -5.36%
CC[C@@H](C)CCCCC(=O)N[C@@H](CCNCS(=O)(=O)O)C(=O)N[C@H](C(=O)N[C@@H](CCNCS(=O)(=O)O)C(=O)N[C@H]1CCNC(=O)[C@H]([C@@H](C)O)NC(=O)[C@H](CCNCS(=O)(=O)O)NC(=O)[C@H](CCNCS(=O)(=O)O)NC(=O)[C@H](CC(C)C)NC(=O)[C@@H](CC(C)C)NC(=O)[C@H](CCNCS(=O)(=O)O)NC1=O)[C@@H](C)O (X8-[Dab(CH2SO3H)]T[Dab(CH2SO3H)][Dab][Dab(CH2SO3H)][dL]L[Dab(CH2SO3H)][Dab(CH2SO3H)]T; lactam 4-C) -23.5%
Clc1ccc2c(c1)CCc1cccnc1C2=C1CCNCC1
COc1cc(/C=C\c2ccc(OC)cc2OC)cc(OC)c1 -2.57%
O=C(Nc1cccc(F)c1)N1CC[C@@]2(CCCN(C(=O)c3ccco3)C2)C1 21%
Cc1cc(C(=O)NCC2CCC3(CCN(Cc4cc(F)ccc4F)CC3)O2)n(C)n1 (stereo not drawn) 20.5%
N#Cc1ccc(CN2CCC3(CC2)CCN(S(=O)(=O)c2ccccc2)CC3)cc1 -11.5%
COc1cc2c(c(OC)c1OC)-c1ccc(OC)c(=O)cc1C(NC(C)=O)CC2 (stereo not drawn) -2.07%
COc1ccccc1N1CCN(c2nc(CNC(=O)c3ccc4c(c3)OCO4)nc3ccccc23)CC1 8.89%
COc1ccc2cnoc(=O)c2c1OC 9.04%
O=C1CC[C@H](O)CCN1[C@H](CSc1ccc(Br)cc1)Cc1ccccc1 2.81%
CSC(=N)N
O=c1c(CCc2ccccc2)nc2cncnc2n1Cc1ccccc1Cl -1.38%
CN(C)Cc1ccccc1-c1nc(N(C)Cc2ccco2)c2ccccc2n1 2.28%
CN(CCCN1c2ccccc2CCc2ccccc21)CC(=O)c1ccc(Cl)cc1 5.91%
CC(=O)[C@@]1(O)[C@H](O)CC2C3CCC4CC(O)CC[C@]4(C)C3CC[C@@]21C (stereo partly drawn) 10.4%
O=C1CCN(Cc2cccnc2)CCN1[C@H](CO)c1ccccc1 10.3%
COc1ccccc1CNc1ncnc2sc(C(=O)N3CCN(C)CC3)c(C)c12 17.9%
COCCNc1nc(-c2cccc(NS(C)(=O)=O)c2)nc2ccccc12 -9.11%
N#CCCn1c(=O)c(-c2cccc(C#N)c2)nc2cnc(Oc3ccccc3)nc21 12.8%
O=C(C[n+]1cccc(Br)c1)c1ccc(F)cc1 16%
CCOC(=O)Cc1ccc(-c2ccccc2)cc1 5.63%
O=C(CCCCCN1CCN(c2ccccc2-c2ccccc2)CC1)NC1CCCc2ccccc21 (stereo not drawn) -13% [at 75.8 µM]
Cc1ccc(CN2C[C@H](Sc3ccccn3)C[C@H]2C(=O)Nc2ccc3sc(C)nc3c2)cc1 4.97%
CCNc1ncc2nc(CCc3ccccc3)c(=O)n(-c3ccccc3)c2n1 9.74%
Cc1cc2nc3c(=O)[nH]c(=O)nc-3n(C[C@H](O)[C@H](O)[C@H](O)CO)c2cc1C
CC1CCC(C(C)(C)O)CC2=C1CCC2C (stereo not drawn) 16.1%
Cc1ncc(COP(=O)(O)O)c(CN)c1O 10.9%
O=C(O)C(O)C(O)(Cc1ccc(O)cc1)C(=O)O (stereo not drawn) 19.6%
CCC1(C2CCN(Cc3ccoc3)CC2)NC(=O)N(CC2COc3ccccc3O2)C1=O (stereo not drawn) 8.53%
Cc1ccc(SC[C@H](Cc2ccccc2)N2CC[C@@H](C(C)(C)C)CCC2=O)cc1 -1.28%
O=C(c1cn(CC2CCCN(Cc3cc4ccccc4s3)C2)nn1)N1CCCC1 (stereo not drawn) 14.1%
O=C1NC(=O)c2cc(Nc3ccccc3)c(Nc3ccccc3)cc21 -5.26% [at 75.8 µM]
CC1(C)OC[C@@H](COC(=O)CCc2ccc(OC[C@@H](O)CNCCNC(=O)N3CCOCC3)cc2)O1
Cc1[nH]cnc1CN1CCc2c(c3ccccc3n2C)C1=O 23.2%
Cc1ncc2c(c1CNC(=O)c1ccccc1F)CCN(C(=O)c1ccccc1-n1cccn1)C2 18.6%
O=C(Cn1c(=O)sc2ccc(Cl)cc21)N1CCN(CCO)CC1 31.6%
Cc1noc(NS(=O)(=O)c2cccc3c(N(C)C)cccc23)c1C 11.8%
Cc1c(C(=O)NCc2nccs2)cnn1-c1ncc2c(n1)-c1ccccc1CC2 -5.43%
CCN(CC)c1ccc(/C=C/c2ccccn2)cc1 -15%
COC(=O)N1CCC2(CCN(Cc3nccs3)CC2)CC1 29.2%
Cc1ccccc1-c1ccc2ncnc(N(C)C)c2c1 10%
COC(=O)N1CCC2(CCN(C(=O)NC(C)C)CC2)CC1 17.8%
CCCCC(C)(O)C/C=C/[C@H]1[C@H](O)CC(=O)[C@@H]1CCCCCCC(=O)O (stereo partly drawn) 15.2% [at 15.3 µM]
COc1cccc(Nc2ncc3ncc(=O)n(CCC#N)c3n2)c1 -0.343%
CCN(CC)C(=O)c1ccc(O)c(OC)c1
NC1(C(=O)O)CC1
COc1ccc(-c2cc(=O)c3c(O)c(OC)c(OC)c(OC)c3o2)cc1 17%
Fc1ccc(Nc2ccnc(-c3ccc4c(c3)OCO4)n2)cc1 -16.5%
O=C1CCN(CCc2ccccc2)CCN1[C@H](COc1ccccc1)Cc1ccccc1 -4.29%
Oc1cc2c(cc1O)C1c3ccc(O)c(O)c3OCC1(O)C2 (stereo not drawn) -26.1%
O=C(C[n+]1ccncc1)c1ccc(Br)cc1 7.21%
CSc1nnc(CNS(=O)(=O)c2ccc(F)cc2F)n1-c1ccccc1C -0.377%
C[C@H](C(=O)O)c1cccc(C(=O)c2ccccc2)c1 4.35%
CS(=O)(=O)Nc1c(O)ccc2c1CCC[C@H]2C1=NCCN1 12%
COC(=O)N1CCC2(CC1)CN(c1ccccn1)C2 17.7%
CCNc1ncc2nc(-c3ccc(F)cc3)c(=O)n(-c3ccccc3)c2n1 -5.91%
O=C(c1ccc(F)cc1)C1CCN(CCn2c(=O)[nH]c3ccccc3c2=O)CC1
O=C(O)CCCCCCCCc1cn(Cc2ccc(C(=O)c3ccccc3)cc2)nn1 11.1%
CCCCCCCCCCOc1cc2c(=O)c(C(=O)OCC)c[nH]c2cc1OCC -2.15%
CN(C)CC(C)(O)c1ccc2c(c1)CN(Cc1cccn1-c1cccnc1)CCO2 (stereo not drawn) -12.1%
Cn1cc(CN2CCC(C3(c4ccccn4)NC(=O)N(CC4CCCO4)C3=O)CC2)c2ccccc21 (stereo not drawn) -0.989%
COc1ccc(CN2CCOc3ccc(CN4CCC(Oc5cccnc5)CC4)cc3C2)cc1C 13.5%
CCN(CC)C(=S)S -1.44%
CCOC(=O)C[C@H]1c2cc(F)ccc2S(=O)(=O)N1Cc1ccc(OC)cc1 7.01%
CCN(CC)CCOC[C@H]1O[C@@H](O)[C@H](OCCN(CC)CC)[C@@H](O)[C@@H]1O 17.7%
NCC1O[C@@H](OC2C(N)C[C@H](N)[C@@H](O[C@H]3OC(CO)C(O)C(N)C3O)C2O)C(O)C(O)C1O (stereo partly drawn) 13.6%
COc1ccc(-c2nc3cc(F)ccc3cc2CN(C(=O)c2ccc3c(c2)OCO3)C2CC2)cc1 -1.01%
COc1ccc(NC(=O)N2CC3(CCN(C(C)=O)CC3)C2)cc1 12.5%
CC(C)CC(N)C(=O)NC(C)C(=O)O (stereo not drawn) 18.6%
Cc1noc(C)c1-c1ccc2ncnc(NCc3cccs3)c2c1 3.14%
COC(=O)N1CCC2(CC1)CN(C(=O)Nc1cccc(F)c1)C2 13.7%
COc1cc([C@@H]2c3cc4c(cc3C(OC3OC5COC(C)OC5C(O)C3O)C3COC(=O)[C@@H]32)OCO4)cc(OC)c1O (stereo partly drawn) 11.4%
CNc1nc(-c2ccc(C(=O)N(C)C)cc2)nc2ccccc12 -10.7%
CC(=O)[C@@]1(O)CC[C@H]2[C@@H]3CCC4=CC(=O)CC[C@]4(C)[C@H]3CC[C@@]21C

Potency, active:
CO[C@H]1C=CO[C@@]2(C)Oc3c(C)c(O)c4c(O)c(c(/C=N/N5CCN(C)CC5)c(O)c4c3C2=O)NC(=O)/C(C)=C\C=C[C@H](C)[C@H](O)[C@@H](C)[C@@H](O)[C@@H](C)[C@H](OC(C)=O)[C@@H]1C 89.1 µM
